B1: LINE1-mini (parent)
chain: GGCAGAGCUCAACACAGCGUGGCAAAGUGGCUGUGGCUAGACUGCC

The source gives no read counts; variants with many changes may rest on few reads.

Among the data in the RNAGym collection of RNA variant scans (doi:10.7554/elife.90254) are self-cleavage values, retold here.

The data set covers variants of B1. The data set can be described thus: self-cleavage, relative activity (ratio to wild type); higher = more cleavage; in vitro, sequencing; the parent is a self-cleaving ribozyme.
Consider A6U C10G C13U, for which the self-cleavage worked out at 0.01.
For G7A A12C U34C, the self-cleavage was 0.01.
As to G7A C15A A16G G19A, the self-cleavage stood at 0.15.
As to A6U C23U G29A, the self-cleavage amounted to 0.59.
As for A6U A14G C18G A24C A25G, the figure is 0.01; as for A6U C37G C45U, 0.03.
On to A6U A12G U32A, for which the self-cleavage is 0.11.
As for A6U A11U C13A A24C G33U U38A, the figure is 0; as for G7A C10A C46G, 0.01; as for A6U A14U G27A A41C C46A, 0.04.
Turning to G7A C10G A25U, the self-cleavage stood at 0.01.
As for A6U U38C C46A, the figure is 0.05; as for G7A C18U U38C U43G, 0.04.
For the variant A6U C10A G22U U32G G44A, the self-cleavage came out at 0.
In the case of A6U G30C A41G, the self-cleavage worked out at 0.86.
In the case of A6U U9A A14G G33A A39C G40U, the self-cleavage stood at 0.12.
Take G7A A25G G29A: the self-cleavage was determined as 0.19.
Turning to A6U A12C C46A, the self-cleavage was 0.01.
For A6U G17C U28C A39C, the self-cleavage is 0.03.
As for G7A G17A G29A C31A C46U, the figure is 0.11; as for A6G U9G C42G, 0.06; as for G7A A26C C37A A39U, 0.03.
As to A6G G30A C37A G40A, the self-cleavage is 0.13.
In the case of A6U G30U A41U, the self-cleavage worked out at 0.1.
Consider A6U G22U C23A G27U G29U G33U, for which the self-cleavage turned out to be 0.12.
On to A6U C23G C31U, for which the self-cleavage amounted to 0.21.
Take A6U G29A G44A: the self-cleavage came out at 1.38.
Take G7A A12G G17U U38A: the self-cleavage is 0.2.
Turning to A6U C10G C13U A26U U38G, the self-cleavage worked out at 0.01.
For A6G G36C C37G, the self-cleavage amounted to 0.03.
As to A6U G21U U34G, the self-cleavage worked out at 0.51.
On to G7A G17C G19A, for which the self-cleavage was determined as 0.09.
For the variant G7A C8G G29U A39G G44U, the self-cleavage is 0.03.
As for G7A C13A A16U C18U U34G G44A, the figure is 0.06; as for G7A A12U G27A, 0.08; as for A6U G7U U9C U20C G35U, 0.05.
In the case of A6U C10A G29A C37U, the self-cleavage worked out at 0.01.
G7A G17A A24G C31G: the self-cleavage is 0.03.
Consider G7A A14U G17A C23U U38G A39U, for which the self-cleavage was 0.18.
Turning to A6U A24G G35U G40A C45A, the self-cleavage turned out to be 0.09.
As to A6U G22A U38C, the self-cleavage turned out to be 0.29.
In the case of G7A G19U C46G, the self-cleavage stood at 0.09.
As for G7A A16G C18U U20G C31G U32A, the figure is 0.02; as for A6U U9A G17C, 0.11; as for G7A C15G G30U G33U, 0.27.
Turning to G7A G21U G36C, the self-cleavage was 0.07.
With A6U U9C G19A, the self-cleavage worked out at 0.01.
For A6U C13A G44A, the self-cleavage stood at 0.1.
As for A6U C8G U9A G19C A24U, the figure is 0.
As to A6U U20A G21C U28A, the self-cleavage amounted to 0.34.
As for A6G G33A C42A G44A, the figure is 0.14.
For G7A A24G A41C, the self-cleavage came out at 0.09.
G7A G19A A25G U28A: the self-cleavage turned out to be 0.11.
For A6U G22A U34G A39G G40U, the self-cleavage is 0.04.
For the variant A6U A14U G33C, the self-cleavage was found to be 0.13.
Take G7A C13A C18A C23G C37G A39G: the self-cleavage amounted to 0.17.
As for A6U A16U G27C U32C G40C, the figure is 0.02; as for G7A C10A G35C G36C, 0.01.
For the variant A6U G7U G22A G40U, the self-cleavage stood at 0.28.
As for G7A A14G U38G, the figure is 0.03; as for A6U C13U A14U G17A G21C C31G, 0.02; as for A6U C10A U28A A39C, 0.01.
In the case of G7A C31G G33C, the self-cleavage stood at 0.
As to A6U C10G C13G C15G U43C, the self-cleavage is 0.
With G7A C8U A16U U20C G30U C31G G36C, the self-cleavage was 0.08.
As for A6U A11G A26G U38G G44U, the figure is 0.02.
For A6G U9A G19C, the self-cleavage was 0.11.
In the case of G7A A26U G30U U32C, the self-cleavage came out at 0.1.
In the case of A6G G27U C31G, the self-cleavage is 0.01.
As for A6G G27U C31U, the figure is 0.04; as for G7A A11G C13U A16U U28G U38A, 0.06.
Take G7A C10U C37U C46U: the self-cleavage came out at 0.02.
As for G7A C8U A14G G17A G19U G21C G30A U43G C45A, the figure is 0.03; as for G7A A12C C42A, 0.
In the case of G7A C10A C37U A41C C45U, the self-cleavage turned out to be 0.01.
For G7A G19U U20G G22A U38C, the self-cleavage was 0.02.
For A6U C10A C13A A41C, the self-cleavage was 0.02.
As for A6U A11G U38C, the self-cleavage was 0.02.
For A6U G21A A24U U32C U38C, the self-cleavage was 0.37.
As to A6U C10A U20A G29C G35A C37A, the self-cleavage worked out at 0.01.
As to A6U G7U C10U, the self-cleavage came out at 0.01.
Turning to A6U G7U C10A, the self-cleavage is 0.02.
As for A6U C18U G29A U38G, the figure is 0.02.
Turning to A6U C15A U28C, the self-cleavage turned out to be 0.04.
As for A6U A26C A39G, the figure is 0.04.
Take A6U C10G G22C C46G: the self-cleavage came out at 0.01.
Regarding A6G U20C G40U, the self-cleavage turned out to be 0.05.
As for A6U C10A G21A G44U, the figure is 0.02.
Take G7A C18U G36A U38G: the self-cleavage came out at 0.03.
Regarding A6U A16G C45A, the self-cleavage turned out to be 0.15.
For A6U G7U C15G G17U C18G, the self-cleavage amounted to 0.07.
A6U C18A C42U: the self-cleavage came to 0.05.
As to G7A A24C A25G, the self-cleavage stood at 0.13.
A6U C10G U34G C37G G40C A41C G44A: the self-cleavage amounted to 0.01.
As for A6G G21U U43G, the figure is 0.94; as for A6U G36A G44A, 0.04.
In the case of G7A A14C G17U C23U C42U, the self-cleavage amounted to 0.12.
Take G7A A16G G19U G33C: the self-cleavage was 0.01.
Regarding A6U C18A C31U C42G, the self-cleavage came to 0.02.
Turning to A6G U32G A39C, the self-cleavage is 0.09.
As for A6U A41G U43A C46A, the figure is 0.64.
Regarding G7A C18A G19A C23G C42U G44A, the self-cleavage amounted to 0.05.
As to A6U C10A C18G C46A, the self-cleavage was 0.03.
A6U C10A C13G A14C U28C: the self-cleavage is 0.05.
In the case of G7A G17A G33U, the self-cleavage turned out to be 0.05.
Consider G7A C15G G44U C45A, for which the self-cleavage is 0.23.
Regarding A6U C42A C45U, the self-cleavage worked out at 0.09.
As for G7A C10A U43A C46G, the self-cleavage was 0.02.
For the variant A6U U28C G33C G40U, the self-cleavage was 0.09.
Take A6G U20A G27C: the self-cleavage came to 0.11.
Turning to A6G G27C U32C G35C, the self-cleavage was 0.02.
Turning to A6U G19C G22A G27A G36A G44C, the self-cleavage amounted to 0.06.
Turning to A6U C18G U34G G36C, the self-cleavage amounted to 0.01.
On to A6U A11C A14U A24U G36A G40U, for which the self-cleavage is 0.
In the case of G7A C10A C18U, the self-cleavage was 0.
For the variant A6G U20C C37A, the self-cleavage is 0.03.
Regarding A6U G17C U38A C45U, the self-cleavage came out at 0.07.
For the variant A6U U20A C45G, the self-cleavage was 0.16.
Turning to A6G U32A C37G G44C, the self-cleavage came to 0.01.
Take A6U U9A C18U A39G A41U: the self-cleavage amounted to 0.02.
For the variant G7A G21A A24G U38C, the self-cleavage came out at 0.08.
Consider G7A A11G G19A C23G C31A, for which the self-cleavage was determined as 0.01.
With G7A G17A G22A C31U, the self-cleavage came to 0.26.
With A6U G7C A11U, the self-cleavage is 0.04.
As for A6U C15U A25G C42A, the figure is 0.11; as for G7A A14U C42G C45A, 0.04.
Take G7A A16C C31U: the self-cleavage came to 0.03.
On to A6U C23A A25G, for which the self-cleavage was found to be 0.2.
As for A6G U20C G27A, the self-cleavage came to 0.04.
As for G7A G19U C37U A39U, the figure is 0.08.
On to A6U C10G C18A, for which the self-cleavage is 0.02.
Regarding G7A G21A U34A C42G C45G, the self-cleavage stood at 0.08.
Regarding A6U C13A C23U C46A, the self-cleavage worked out at 0.21.
Consider A6U C8U G17U, for which the self-cleavage was 0.12.
Turning to G7A C10G U28C, the self-cleavage is 0.01.
For G7A G17C A39C, the self-cleavage stood at 0.04.
For the variant A6G G29U G35U C37U, the self-cleavage was 0.01.
Take A6G G29C G30A: the self-cleavage amounted to 0.07.
Turning to A6U C23A A25G G30U U34G G40U, the self-cleavage was 0.03.
As for G7A C10U G40C, the figure is 0.04; as for A6U C8A A24C C31U, 0.32; as for A6U C13U A26C C37A A39U, 0.26.
As for A6G G21U C37A U38G, the figure is 0.02; as for A6G U20A C37G, 0.01.
Regarding G7A C13A C18A G27A, the self-cleavage was determined as 0.13.
In the case of A6G U9C U32A, the self-cleavage came out at 0.01.
As for A6U C18A G22A A26C A41G, the self-cleavage came to 1.45.
For G7A C13A A16U A26G G27C C31A, the self-cleavage worked out at 0.06.
As for A6U G21U G22C, the figure is 0.56.
As for A6U A14G G27U, the figure is 0.88; as for G7A C31U U43G, 0.07; as for G7A C13G A16C U38C A41G U43G C46A, 0.03.
As for A6U G22C G30C G35A C42G, the figure is 0.1.
On to A6U G21U G40C, for which the self-cleavage was found to be 0.05.
As for A6U G21U G30A, the figure is 0.78; as for G7A C10G G30C, 0.01; as for A6U A24G G27C, 0.18.
For the variant A6G G30C G35U, the self-cleavage came out at 0.04.
On to G7A C8G G30A G36U, for which the self-cleavage turned out to be 0.05.
A6U G22U C45U: the self-cleavage stood at 2.77.
As for G7A C8A G30C, the self-cleavage was 0.57.
With A6U A16C G36A, the self-cleavage came out at 0.02.
Consider A6U G22U C23G A39C U43A G44C, for which the self-cleavage was 0.01.
As for G7A G19C C23G, the figure is 0.07; as for A6U G7A C10A G22U G29C, 0.03.
As to A6U A12U G19A G44U, the self-cleavage was found to be 0.1.
A6U G22U U28A G29C U32C: the self-cleavage was determined as 1.47.
